Publication PMC4993004
Results are given in words; binding and its absence hold for the method and conditions named. Binding seen in cells or lysates may run through a third protein. Some results given as binding are weak or reduced against the parent protein; the word gives no strength.

The chains behind the UniProt entries cited, without tags or fusion partners.
UniProt P10085: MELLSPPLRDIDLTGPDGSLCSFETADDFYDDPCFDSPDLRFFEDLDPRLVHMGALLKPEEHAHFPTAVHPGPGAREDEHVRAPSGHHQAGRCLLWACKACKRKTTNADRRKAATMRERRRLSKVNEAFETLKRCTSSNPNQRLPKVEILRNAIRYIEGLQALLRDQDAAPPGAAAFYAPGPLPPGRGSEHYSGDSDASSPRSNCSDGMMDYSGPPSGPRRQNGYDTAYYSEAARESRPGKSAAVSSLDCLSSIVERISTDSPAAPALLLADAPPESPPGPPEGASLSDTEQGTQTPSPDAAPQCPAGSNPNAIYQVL

What was measured:
[1] = molecular target: T1, KMT1A (lysine methyltransferase 1A) (mouse (endogenous in C2C12)) (UniProt O54864); assay: co-IP; anti-KMT1A immunoprecipitates from extracts of C2C12 cells grown in GM, or in DM with SB203580 (also cells with empty vector in GM); western blot for MyoD; control IgG
T1 sequence: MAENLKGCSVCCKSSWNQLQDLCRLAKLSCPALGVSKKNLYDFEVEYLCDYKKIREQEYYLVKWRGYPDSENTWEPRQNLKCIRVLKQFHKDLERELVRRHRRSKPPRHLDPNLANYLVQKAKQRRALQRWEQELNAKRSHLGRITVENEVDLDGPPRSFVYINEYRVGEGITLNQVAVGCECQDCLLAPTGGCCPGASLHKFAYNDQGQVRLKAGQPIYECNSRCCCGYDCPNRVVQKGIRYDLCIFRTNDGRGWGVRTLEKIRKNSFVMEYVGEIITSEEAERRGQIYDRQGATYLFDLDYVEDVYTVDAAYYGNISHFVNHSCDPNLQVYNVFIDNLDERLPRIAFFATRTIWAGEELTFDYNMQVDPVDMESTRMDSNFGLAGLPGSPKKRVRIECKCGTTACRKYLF

[2] = molecular target: T1, KMT1A (lysine methyltransferase 1A) (mouse (endogenous in C2C12)); assay: condition: only cells in DM without SB (p38α active); co-IP; anti-KMT1A immunoprecipitates from extracts of C2C12 cells in DM without SB (also cells with empty vector in DM); western blot for MyoD
[3] = molecular target: T1, KMT1A (lysine methyltransferase 1A) (mouse (endogenous in C2C12)); assay: condition: only cells overexpressing MKK6EE (p38α activated), in GM; co-IP; anti-KMT1A immunoprecipitates from extracts of C2C12 cells overexpressing HA-MKK6EE (lentiviral), grown in GM; western blot for MyoD

binding [1]: binds
binding [2]: no binding
binding [3]: no binding
Substance: MyoD (from UniProt P10085 1-318)
